# Some of the results follow.
# Experiments:
# Test in all cases: glycan array binding signal (z-score within array); higher = stronger binding
# Conditions in all cases: glycan notation: IUPAC condensed, linker removed
# [1] = target: Neu5Ac(a2-3)Gal(b1-4)GlcNAc(b1-3)Gal(b1-4)[Fuc(a1-3)]GlcNAc
# Outline: (§1)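 The binding signal is a Z-score computed within each array and averaged over linkers. Arrays of the same protein sequence at different concentrations or buffers were also averaged together. Data originate from 3228 arrays in the Consortium for Functional Glycomics database, kept only where the protein sequence was available.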
# [2] = target: Neu5Ac(a2-3)Gal(b1-4)GlcNAc(b1-3)GalNAc
# Outline: as §1
# [3] = target: Neu5Ac(a2-3)Gal(b1-4)GlcNAc(b1-6)[Gal(b1-3)]GalNAc
# Outline: as §1
# [4] = target: Neu5Ac(a2-3)Gal(b1-4)GlcNAc(b1-6)[Neu5Ac(a2-3)Gal(b1-3)]GalNAc
# Outline: as §1
# [5] = target: Neu5Ac(a2-3)Gal(b1-4)GlcNAc6S
# Outline: as §1
# [6] = target: Neu5Ac(a2-3)Gal(b1-4)[Fuc(a1-3)]GlcNAc
# Outline: as §1
# [7] = target: Neu5Ac(a2-3)Gal(b1-4)[Fuc(a1-3)]GlcNAc(b1-3)Gal
# Outline: as §1
# [8] = target: Neu5Ac(a2-3)Gal(b1-4)[Fuc(a1-3)]GlcNAc(b1-3)Gal(b1-4)GlcNAc
# Outline: as §1
# [9] = target: Neu5Ac(a2-3)Gal(b1-4)[Fuc(a1-3)]GlcNAc(b1-3)Gal(b1-4)[Fuc(a1-3)]GlcNAc(b1-3)Gal(b1-4)[Fuc(a1-3)]GlcNAc
# Outline: as §1
# [10] = target: Neu5Ac(a2-3)Gal(b1-4)[Fuc(a1-3)]GlcNAc(b1-6)[Gal(b1-3)]GalNAc
# Outline: as §1
# [11] = target: Neu5Ac(a2-3)Gal(b1-4)[Fuc(a1-3)]GlcNAc(b1-6)[Neu5Ac(a2-3)Gal(b1-3)]GalNAc
# Outline: as §1
# [12] = target: Neu5Ac(a2-3)Gal(b1-4)[Fuc(a1-3)]GlcNAc6S
# Outline: as §1
# [13] = target: Neu5Ac(a2-3)Gal6S(b1-4)GlcNAc
# Outline: as §1
# [14] = target: Neu5Ac(a2-3)Gal6S(b1-4)[Fuc(a1-3)]GlcNAc
# Outline: as §1
# Neu5Ac(a2-3)GalNAc = target: Neu5Ac(a2-3)GalNAc
# Outline: as §1
# [15] = target: Neu5Ac(a2-3)GalNAc(b1-4)GlcNAc
# Outline: as §1
# [16] = target: Neu5Ac(a2-3)[GalNAc(b1-4)]Gal(b1-4)Glc
# Outline: as §1
# [17] = target: Neu5Ac(a2-3)[GalNAc(b1-4)]Gal(b1-4)GlcNAc
# Outline: as §1
# [18] = target: Neu5Ac(a2-3)[Neu5Ac(a2-6)]GalNAc
# Outline: as §1
# Neu5Ac(a2-6)Gal = target: Neu5Ac(a2-6)Gal
# Outline: as §1
# Neu5Ac(a2-6)Gal(b1-4)Glc = target: Neu5Ac(a2-6)Gal(b1-4)Glc
# Outline: as §1
# [19] = target: Neu5Ac(a2-6)Gal(b1-4)GlcNAc
# Outline: as §1
# [20] = target: Neu5Ac(a2-6)Gal(b1-4)GlcNAc(b1-2)Man(a1-3)Man(b1-4)GlcNAc(b1-4)GlcNAc
# Outline: as §1
# [21] = target: Neu5Ac(a2-6)Gal(b1-4)GlcNAc(b1-2)Man(a1-3)[Gal(b1-4)GlcNAc(b1-2)Man(a1-6)]Man(b1-4)GlcNAc(b1-4)GlcNAc
# Outline: as §1
# [22] = target: Neu5Ac(a2-6)Gal(b1-4)GlcNAc(b1-2)Man(a1-3)[GlcNAc(b1-2)Man(a1-6)]Man(b1-4)GlcNAc(b1-4)GlcNAc
# Outline: as §1
# [23] = target: Neu5Ac(a2-6)Gal(b1-4)GlcNAc(b1-2)Man(a1-3)[GlcNAc(b1-2)Man(b1-4)GlcNAc(b1-2)Man(a1-6)]Man(b1-4)GlcNAc(b1-4)GlcNAc
# Outline: as §1
# [24] = target: Neu5Ac(a2-6)Gal(b1-4)GlcNAc(b1-2)Man(a1-3)[Man(a1-6)]Man(b1-4)GlcNAc(b1-4)GlcNAc
# Outline: as §1
# [25] = target: Neu5Ac(a2-6)Gal(b1-4)GlcNAc(b1-2)Man(a1-3)[Neu5Ac(a2-6)Gal(b1-4)GlcNAc(b1-2)Man(a1-6)]Man(b1-4)GlcNAc(b1-4)GlcNAc
# Outline: as §1
# [26] = target: Neu5Ac(a2-6)Gal(b1-4)GlcNAc(b1-2)Man(a1-6)Man(b1-4)GlcNAc(b1-4)GlcNAc
# Outline: as §1
# [27] = target: Neu5Ac(a2-6)Gal(b1-4)GlcNAc(b1-2)Man(a1-6)[Gal(b1-4)GlcNAc(b1-2)Man(a1-3)]Man(b1-4)GlcNAc(b1-4)GlcNAc
# Outline: as §1
# [28] = target: Neu5Ac(a2-6)Gal(b1-4)GlcNAc(b1-2)Man(a1-6)[GlcNAc(b1-2)Man(a1-3)]Man(b1-4)GlcNAc(b1-4)GlcNAc
# Outline: as §1
# [29] = target: Neu5Ac(a2-6)Gal(b1-4)GlcNAc(b1-2)Man(a1-6)[Man(a1-3)]Man(b1-4)GlcNAc(b1-4)GlcNAc
# Outline: as §1
# [30] = target: Neu5Ac(a2-6)Gal(b1-4)GlcNAc(b1-3)Gal(b1-3)GlcNAc
# Outline: as §1
# [31] = target: Neu5Ac(a2-6)Gal(b1-4)GlcNAc(b1-3)Gal(b1-4)GlcNAc
# Outline: as §1
# [32] = target: Neu5Ac(a2-6)Gal(b1-4)GlcNAc(b1-3)Gal(b1-4)GlcNAc(b1-3)Gal(b1-4)GlcNAc
# Outline: as §1
# [33] = target: Neu5Ac(a2-6)Gal(b1-4)GlcNAc(b1-3)Gal(b1-4)[Fuc(a1-3)]GlcNAc(b1-3)Gal(b1-4)[Fuc(a1-3)]GlcNAc
# Outline: as §1
# [34] = target: Neu5Ac(a2-6)Gal(b1-4)GlcNAc(b1-3)GalNAc
# Outline: as §1
# [35] = target: Neu5Ac(a2-6)Gal(b1-4)GlcNAc6S
# Outline: as §1
binder,measurement,setting,value
"DC-ASPGR (Homo sapiens), CLC10_HUMAN (protein) LDQNSKFQRDLVTLRTDFSNFTSNTVAEIQALTSQGSSLEETIASLKAEVEGFKQERQAVHSEMLLRVQQLVQDLKKLTCQVATLNNNASTEGTCCPVNWVEHQDSCYWFSHSGMSWAEAEKYCQLKNAHLVVINSREEQNFVQKYLGSAYTWMGLSDPEGAWKWVDGTDYATGFQNWKPGQPDDWQGHGLGGGEDCAHFHPDGRWNDDVCQRPYHWVCEAGLGQTSQESHVEPKSCDKTHTCPPCPAPELLGGPSVFLFPPKPKDTLMISRTPEVTCVVVDVSHEDPEVKFNWYVDGVEVHNAKTKPREEQFNSTYRVVSVLTVLHQDWLNGKEYKCKVSNKGLPSSIEKTISKAKGQPREPQVYTLPPSQEEMTKNQVSLTCLVKGFYPSDIAVEWESNGQPENNYKTTPPVLDSDGSFFLYSRLTVDKSRWQEGNVFSCSVMHEALHNHYTQK",glycan array binding signal (z-score),[1],-0.152
same,glycan array binding signal (z-score),[2],-0.18
same,glycan array binding signal (z-score),[3],-0.295
same,glycan array binding signal (z-score),[4],-0.165
same,glycan array binding signal (z-score),[5],-0.053
same,glycan array binding signal (z-score),[6],-0.215
same,glycan array binding signal (z-score),[7],-0.27
same,glycan array binding signal (z-score),[8],-0.185
same,glycan array binding signal (z-score),[9],-0.181
same,glycan array binding signal (z-score),[10],0.034
same,glycan array binding signal (z-score),[11],0.645
same,glycan array binding signal (z-score),[12],-0.265
same,glycan array binding signal (z-score),[13],-0.179
same,glycan array binding signal (z-score),[14],-0.266
same,glycan array binding signal (z-score),Neu5Ac(a2-3)GalNAc,-0.134
same,glycan array binding signal (z-score),[15],-0.279
same,glycan array binding signal (z-score),[16],1.06
same,glycan array binding signal (z-score),[17],1.14
same,glycan array binding signal (z-score),[18],-0.28
same,glycan array binding signal (z-score),Neu5Ac(a2-6)Gal,-0.225
same,glycan array binding signal (z-score),Neu5Ac(a2-6)Gal(b1-4)Glc,-0.255
same,glycan array binding signal (z-score),[19],-0.236
same,glycan array binding signal (z-score),[20],-0.154
same,glycan array binding signal (z-score),[21],-0.209
same,glycan array binding signal (z-score),[22],0.448
same,glycan array binding signal (z-score),[23],-0.042
same,glycan array binding signal (z-score),[24],-0.092
same,glycan array binding signal (z-score),[25],0.389
same,glycan array binding signal (z-score),[26],-0.066
same,glycan array binding signal (z-score),[27],-0.115
same,glycan array binding signal (z-score),[28],-0.153
same,glycan array binding signal (z-score),[29],-0.05
same,glycan array binding signal (z-score),[30],-0.219
same,glycan array binding signal (z-score),[31],-0.23
same,glycan array binding signal (z-score),[32],-0.27
same,glycan array binding signal (z-score),[33],-0.319
same,glycan array binding signal (z-score),[34],0.14
same,glycan array binding signal (z-score),[35],-0.117
